Assay results: PubChem BioAssay AID2675 (National Center for Advancing Translational Sciences (NCATS), 2010)
The campaign covered roughly 280,000 compounds. About 100 (0.036%) were called active. The inconclusive results got no clear call from the source; some entries with a clear call stand among them for comparison. Calls follow the shape of the dose curve; as a rule, active = well fitted inhibition curve with a large enough effect in the signal ratio, with a control signal flat (not every such curve was filed as active); inconclusive = small, poorly fitted or top-dose-only effect, or effect the other way, or a change in a side signal; inactive = no such curve, though single readings can be large or run the other way; the % refers to the signal ratio. A potency beside an inconclusive call is a rough fit, not a confirmed value. “Side channel” marks fits to a control or component signal instead of the main read-out.

Biological target: Muscleblind-like protein 1 (Homo sapiens) (UniProt Q9NR56)
UniProt Q9NR56, sequence (Q9NR56 whole entry, looked up): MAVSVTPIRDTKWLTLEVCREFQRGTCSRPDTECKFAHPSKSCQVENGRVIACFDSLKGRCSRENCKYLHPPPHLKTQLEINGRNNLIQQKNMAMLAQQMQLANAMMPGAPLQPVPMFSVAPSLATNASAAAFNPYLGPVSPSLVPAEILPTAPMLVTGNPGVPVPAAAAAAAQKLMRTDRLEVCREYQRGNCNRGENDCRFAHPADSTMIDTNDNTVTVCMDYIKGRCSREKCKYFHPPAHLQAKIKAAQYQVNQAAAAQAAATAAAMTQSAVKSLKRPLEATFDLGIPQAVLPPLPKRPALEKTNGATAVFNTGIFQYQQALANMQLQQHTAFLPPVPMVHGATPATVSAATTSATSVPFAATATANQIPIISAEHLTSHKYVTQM
Assay: qHTS Assay for Inhibitors of MBNL1-poly(CUG) RNA binding
Conditions: TR-FRET MBNL1-His/biotin-(CUG)12 binding, 665/545 ratio; activity change, negative = inhibition: at 57.5 µM (top of the series)
Outline: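 MBNL1-His + Biotin-(CUG)12, cpd titration 92 nM–58 uM; Tb anti-His Ab 0.055 ng/ul, SA-XL665 5 nM (final); 60 min RT; ratiometric 665/545 nm, Ex 340 nm; normalized to buffer and full-complex controls.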
% is scaled to controls: 0 for no effect and ±100 for the full control effect; potency is read from the fitted curve at half-maximal effect; tags tell the direction and shape of the fitted curve or compound fluorescence and quenching.

Row | SMILES | activity change, negative = inhibition | Potency
1 | CCOC(=O)CNC(=O)CSc1nc(-c2ccccc2)ns1 | inactive: 4.88% | –
2 | COc1ccc(CC(=O)Nc2cccc(SC)c2)cc1 | – | inconclusive: 2510 µM [inhibitor, partial curve]
3 | CNCc1c(OCc2ccccc2)ccc2ccccc12 | – | inconclusive: 25.1 µM [quencher, side channel, single point]
4 | O=c1c2ccccc2c(C=NCCO)c(O)n1-c1ccccc1 | – | inconclusive: 0.631 µM [quencher, side channel, full curve, poor fit]
5 | Oc1ccc(N=Nc2nccs2)c(O)c1 | – | inconclusive: 14.1 µM [quencher, side channel, partial curve]
6 | O=C(NCC(c1ccco1)N1CCN(c2ccccc2F)CC1)OCc1ccccc1 (stereo not drawn) | inconclusive: -4.93% [phenotype inactive] | –
7 | CC1SCC(=NOCc2ccccc2)CS1 (stereo not drawn) | inactive: -1.69% | –
8 | Cc1ccc(O)c(C(=O)/C=C/c2ccc3c(c2)OCCCO3)c1 | inactive: -27.5% | –
9 | O=C(O)c1ccccc1N/C=C\[N+](=O)[O-] | – | inconclusive: 22.4 µM [quencher, side channel, single point]
10 | Cc1cccn2c(=O)c3cc(C(=O)NCCN4CCOCC4)c(=N)n(CCc4ccccc4)c3nc12 | – | inconclusive: 7.94 µM [quencher, side channel, full curve]
11 | O=[N+]([O-])c1ccc(O)c(Nc2c([N+](=O)[O-])ccc3nonc23)c1 | – | inconclusive: 12.6 µM [quencher, side channel, partial curve]
12 | CCn1cc(CN(C)S(=O)(=O)c2cccc([N+](=O)[O-])c2)cn1 | – | inconclusive: 39.8 µM [quencher, single point]
13 | COC(=O)c1sccc1NC(=S)Nc1ccccc1 | inactive: -7.34% | –
14 | COc1cc(OC)cc(C(=O)NNC(=S)Nc2ccc(S(N)(=O)=O)cc2)c1 | – | inconclusive: 39.8 µM [quencher, side channel, single point]
15 | CCN(CC)CCNC(=O)c1ccc(NC(=O)/C=C/c2cc(OC)c(OC)c(OC)c2)cc1 | – | inconclusive: 28.2 µM [quencher, side channel, partial curve]
16 | CCCCn1c(NC(=O)c2ccccc2)nc2ccccc21 | inactive: 7.69% | –
17 | CCCc1[nH]n(-c2ccc([N+](=O)[O-])cc2)c(=O)c1C(C)=NCc1ccncc1 | – | inconclusive: 14.1 µM [quencher, side channel, partial curve]
18 | Cc1ccc(NC(=O)NCCN2CCCCC2)cc1 | inactive: -9.88% | –
19 | S=c1[nH]nc(-c2ccncc2)n1/N=C/C=C/c1ccccc1 | – | inconclusive: 15.8 µM [quencher, side channel, partial curve]
20 | COc1ccc(C(=O)ON=C2c3ccccc3-c3ccccc32)cc1OC | – | inconclusive: 1.41 µM [fluorescent, side channel, full curve]
21 | COc1ccc(-c2cc(=O)oc3cc(OCC(=O)N(C)C4CCS(=O)(=O)C4)ccc23)cc1 (stereo not drawn) | – | inconclusive: 11.2 µM [quencher, side channel, partial curve]

Row | SMILES | activity change, negative = inhibition | Potency
22 | S=C(Nc1nc2c(s1)CCCC2)NC1CC1 | inactive: 6.16% | –
23 | Cc1cc(C)c(C)c(N=Nc2nc3ccccc3n2C)c1C | – | inconclusive: 20 µM [quencher, side channel, partial curve]
24 | CN1C(=O)c2ccc(NC(=O)c3c(C(=O)O)cccc3[N+](=O)[O-])cc2C1=O | – | inconclusive: 12.6 µM [quencher, side channel, partial curve]
25 | O=C(c1ccco1)N1CCC(c2nc(-c3ccccc3Cl)no2)CC1 | – | inconclusive: 7.08 µM [quencher, side channel, single point]
26 | Cc1ccnc(NC(=O)Nc2ccc3c(c2)N(C)C(=O)CS3)c1 | – | inconclusive: 39.8 µM [fluorescent, side channel, partial curve, poor fit]
27 | O=C(Oc1ccc(Cl)cc1)c1ccc(N2CCOCC2)c([N+](=O)[O-])c1 | inconclusive: 8.05% [phenotype inactive] | –
28 | Clc1ccc2nc(CN3CCCc4ccccc43)cn2c1 | – | inconclusive: 28.2 µM [quencher, side channel, single point]
29 | C/C(=N\NC(N)=S)C12CC3CC(CC(C3)C1)C2 | inactive: -1.13% | –
30 | N#Cc1c(N)sc(=S)c2c1CCCC2 | – | inconclusive: 39.8 µM [quencher, single point]
31 | CC(C)N1CC=C2C(C#N)=C(N)C(C#N)(C#N)[C@H](c3ccoc3)[C@H]2C1 | – | inconclusive: 22.4 µM [quencher, side channel, partial curve]
32 | O=C(Nc1cccc([N+](=O)[O-])c1)c1ccc(CN2CCOCC2)cc1 | – | inconclusive: 8.91 µM [quencher, side channel, full curve]
33 | Clc1cc(Cl)c2nc(N3CCCCC3)sc2c1 | – | inconclusive: 35.5 µM [fluorescent, side channel, single point]
34 | Cc1c(C(=O)Nc2ccccc2)sc2nc(-c3ccccc3)cn12 | – | inconclusive: 7.08 µM [quencher, side channel, single point]
35 | CC(=O)C1=C(O)C(=O)N(c2ccc(Br)cc2)C1c1ccc([N+](=O)[O-])cc1 (stereo not drawn) | – | inconclusive: 12.6 µM [quencher, side channel, partial curve]
36 | C=CCc1c(C)[nH]c(=S)c(C#N)c1C | inactive: 8.29% | –
37 | Cc1cc(N/N=C/c2ccc(O)cc2O)nc(N2CCOCC2)n1 | – | inconclusive: 39.8 µM [quencher, side channel, single point]
38 | Cc1ccc2cc(CN(Cc3ccc4c(c3)OCO4)Cc3nnnn3Cc3ccco3)c(=O)[nH]c2c1 | – | inconclusive: 0.891 µM [quencher, side channel, single point]
39 | COc1ccc(-c2cc(C)no2)cc1S(=O)(=O)NCCCN1CCN(c2ccccc2)CC1 | – | inconclusive: 158 µM [inhibitor, partial curve]
40 | CCc1ccc(Nc2ccc(C(N)=O)cc2[N+](=O)[O-])cc1 | – | inconclusive: 11.2 µM [quencher, side channel, partial curve]
41 | CC(C(=O)N1CCN(C2c3ccccc3-c3ccccc32)CC1)N1C(=O)c2ccccc2C1=O (stereo not drawn) | – | inconclusive: 0.1 µM [fluorescent, side channel, full curve]
42 | O=[N+]([O-])c1nn(-c2ccccc2)n(O)c1=NC1CCN(Cc2ccccc2)CC1 | – | inconclusive: 10 µM [quencher, side channel, partial curve]

Row | SMILES | activity change, negative = inhibition | Potency
43 | NNC(=O)CNc1cccc(Br)c1 | inactive: 3.62% | –
44 | COc1ccc2nc(C)cc(C(=O)O)c2c1 | inactive: -5.7% | –
45 | CCOC(=O)N1CCN(C(=O)NC2CCCCC2)CC1 | inactive: 1.61% | –
46 | CC(C)OC(=O)C1C2C=CC3(CN(C(C)c4ccc(Br)cc4)C(=O)C13)O2 (stereo not drawn) | – | inconclusive: 79.4 µM [inhibitor, single point]
47 | O=C(OCC(=O)N1CCc2ccccc2C1)c1cc(=O)[nH]c2ccccc12 | – | inconclusive: 22.4 µM [quencher, side channel, partial curve]
48 | O=[N+]([O-])c1ccc(O)c(Nc2ncnc3ccccc23)c1 | – | inconclusive: 20 µM [quencher, side channel, partial curve]
49 | Cc1nn(-c2ccc(F)cc2)c2nc(N)c(C#N)c(-c3cccs3)c12 | – | inconclusive: 31.6 µM [fluorescent, partial curve]
50 | CC1CCN(C2=NC(=O)/C(=C/c3ccc(O)cc3)S2)CC1 | – | inconclusive: 14.1 µM [quencher, side channel, partial curve]
51 | O=c1c2cc(Br)ccc2[nH]c(=S)n1Cc1ccccc1 | inactive: 20.9% | –
52 | O=C(O)c1cccc(NC(=O)c2cn(-c3ccccc3)nc2-c2ccc([N+](=O)[O-])cc2)c1 | – | inconclusive: 17.8 µM [quencher, partial curve]
53 | CCN1CCN(C(C(=O)NC2CCCC2)c2cc3c(cc2[N+](=O)[O-])OCO3)CC1 (stereo not drawn) | – | inconclusive: 31.6 µM [quencher, side channel, single point]
54 | Cc1ccc(NC(=O)CCS(=O)(=O)c2cccc3nonc23)cc1 | – | inconclusive: 14.1 µM [quencher, side channel, partial curve]
55 | O=C1Nc2ccc([N+](=O)[O-])cc2OC1CCN1CCN(c2ccccc2)CC1 (stereo not drawn) | – | inconclusive: 15.8 µM [quencher, side channel, partial curve]
56 | O=C(Nc1ccccc1O)C(c1ccccc1)c1ccccc1 | inactive: -5% | –
57 | CCN(Cc1ccccc1)C(=O)c1oc2ccc(S(=O)(=O)N3CCOCC3)cc2c1C | inactive: 1.4% | –
58 | O=c1c2ccccc2ncn1-c1ccc([N+](=O)[O-])cc1Cl | – | inconclusive: 14.1 µM [quencher, partial curve]
59 | Cc1cccc(N(CC(N)=O)C2SC(=O)NC2=O)c1 (stereo not drawn) | inactive: -4.26% | –
60 | Cc1ccc(C)c(S(=O)(=O)Nc2ccc(O)c3ccccc23)c1 | – | inconclusive: 0.891 µM [quencher, side channel, full curve]
61 | C#CCOC(=O)CCCNc1ccc([N+](=O)[O-])cc1[N+](=O)[O-] | – | inconclusive: 12.6 µM [quencher, side channel, partial curve]
62 | CC(=O)N1CCN(c2ccc([N+](=O)[O-])c(NCC3CCCO3)c2)CC1 (stereo not drawn) | – | inconclusive: 8.91 µM [quencher, partial curve]
63 | CC(=O)Nc1ccc(OCC(O)CN2CCN(Cc3ccccc3)CC2)cc1 (stereo not drawn) | – | inconclusive: 8.91 µM [quencher, side channel, single point]
